# Data as given in PubChem BioAssay AID463173 (ICCB-Longwood Screening Facility, Harvard Medical School, 2010).
# Out of some 52,000 compounds screened, about 1,700 (3.3%) were called active. Rule as the data show it: active = survival mostly below about 52% (no sharp cut-off); inactive = mostly above about 56%. The list shows a part of the results.
# Test system: Wild type
# Test: S. aureus survival, RN4220 and DeltatarO strains – OD600, teichoic acid synthesis inhibitors, primary screen (AID 463173)
# Conditions: S. aureus RN4220 wild type/DeltatarO growth, OD600, 18 h, active compounds read low, screened at 18.75 µg/mL (by protocol)
row,SMILES,survival
1,O=C(CCc1nc(CN2CCN(S(=O)(=O)c3ccc(Cl)cc3)CC2)no1)N1CCCCC1,inactive: 126%
2,Cc1cccc(Cn2c(SCc3ccc(C(=O)NCCc4ccccc4)cc3)nc3ccncc32)c1,inactive: 82%
3,CCc1cccc(C)c1NC(=O)Cn1ccn(-c2cccc(OC)c2)c(=O)c1=O,inactive: 84%
4,CCOc1ccc(-c2nc(CSCC(=O)N3CCN(c4ccc(F)cc4)CC3)c(C)o2)cc1,inactive: 113%
5,CCOc1ccc(C(=O)NCCn2cc(SCC(=O)Nc3ccc4c(c3)OCCO4)c3ccccc32)cc1,inactive: 74%
6,Cc1nc2scc(C)n2c(=O)c1S(=O)(=O)Nc1ccc(N2CCOCC2)c(Cl)c1,inactive: 78%
7,CCC(C(=O)Nc1cc(OC)cc(OC)c1)n1nc(-c2ccc(C)c(C)c2)ccc1=O (stereo not drawn),inactive: 87%
8,CN1CCc2c(sc3c2C(=O)NC(c2ccc(OC(=O)c4ccc(C(C)(C)C)cc4)cc2)N3)C1 (stereo not drawn),inactive: 98%
9,CCN(CC)C(=O)c1sc2c(c1C)c(=O)n(-c1ccc(Cl)c(Cl)c1)c(=O)n2Cc1ccccc1C#N,inactive: 77%
10,COCCCNc1oc(/C=C/c2cc(OC)c(OC)c(OC)c2)nc1C#N,inactive: 81%
11,COc1cc(NC(=O)Cn2c(=O)n(Cc3ccco3)c(=O)c3sc4ccccc4c32)cc(OC)c1,inactive: 86%
12,Cc1ccccc1OCC(=O)OC1CCCN(C)C1 (stereo not drawn),inactive: 90%
13,Cc1cccc(NC(=O)CSc2ncc3c(n2)-c2ccccc2N(Cc2ccc(F)cc2)S3(=O)=O)c1C,inactive: 74%
14,CCC(C)NC(=O)c1cc(-c2cccc(OC)c2)on1 (stereo not drawn),inactive: 64%
15,Cc1ccc(C)c(N2CCN(C(=O)C3CCN(c4nc5ccc(C)cc5[nH]4)CC3)CC2)c1,inactive: 73%
16,Cc1ccc(N2CCN(C(=O)c3c(C)oc4ncn(CC(C)C)c(=O)c34)CC2)c(C)c1,inactive: 92%
17,CN(C)c1ccc(-c2nc(-c3cc4cc(Cl)ccc4oc3=O)cs2)cc1,inactive: 72%
18,Cc1ccc(Oc2c(C(F)(F)F)oc3c(CN4CCC(C)CC4)c(O)ccc3c2=O)cc1,inactive: 66%
19,CCc1cccc(NC(=O)CCC(=O)N2CCSc3ccccc32)c1,inactive: 88%
20,Cc1cccc(CCNC(=O)c2ccc3c(c2)N(Cc2ccccc2F)C(=O)c2ccccc2S3)c1,inactive: 73%
21,Cc1cc(-c2ccc(C)c(S(=O)(=O)N3CCN(c4cccc(C(F)(F)F)c4)CC3)c2)on1,inactive: 91%
22,CCN(CC)C(=O)c1c(-c2ccccc2)c(-c2ccccc2)nn(C)c1=O,inactive: 83%

row,SMILES,survival
1,CCc1ccc(C(=O)c2cn(CC(=O)Nc3cc(C)ccc3C)c3nc(C)ccc3c2=O)cc1,inactive: 113%
2,Cc1cc2ccccc2n1-c1ccc(C(=O)N2CCC(C(=O)NCc3ccc(Cl)cc3)CC2)s1,inactive: 63%
3,COc1ccccc1NC(=O)NC1(C(=O)N2CCCCC2)CCCCC1,inactive: 103%
4,CC(=O)N1CCCc2cc(S(=O)(=O)N3CCC(C(=O)Nc4cccc(Cl)c4C)CC3)ccc21,inactive: 71%
5,COc1ccc(N2CCN(C(=O)CCn3nc(C)c(S(=O)(=O)N4CCCC4)c3C)CC2)cc1,inactive: 80%
6,O=C(CSc1nnc(-c2cccs2)o1)Oc1ccccc1,inactive: 83%
7,CC(/C=N/NC(=O)Cc1cccn1C)=C\c1ccco1,inactive: 112%
8,N#CC(=C1CCN(Cc2ccccc2)CC1)c1ccccc1,inactive: 110%
9,CCN(CC)CCCNC(=O)c1ccc(-c2nc(CN3CCc4ccccc43)c(C)o2)cc1,inactive: 65%
10,O=C(CSc1nnc(-c2ccccc2)o1)c1cccc([N+](=O)[O-])c1,inactive: 134%
11,COC(=O)c1cc(S(=O)(=O)N2CCN(c3cccc(C)c3)C(C)C2)cn1C (stereo not drawn),inactive: 76%
12,O=C(Cn1ncc2c3ccccc3n(Cc3ccc(Cl)cc3)c2c1=O)NCc1ccccn1,inactive: 93%
13,NC(=O)c1ccccc1NC(=O)c1ccc(-c2ccc(Br)cc2)o1,inactive: 95%
14,CCc1ccc(-n2cnc3cc(C(=O)NCc4ccc(C)cc4)ccc32)cc1,inactive: 65%
15,CCOc1ccc(C(=O)Nc2ccc3nc(SCCOc4ccccc4)sc3c2)cc1,inactive: 92%
16,CCN(CC)CCCNC(=O)c1ccc2c(=O)n(CCc3ccccc3)c(=O)[nH]c2c1,inactive: 74%
17,CC(=O)c1cccc(NC(=O)Cn2nc(C)n3cccc3c2=O)c1,inactive: 109%
18,CCOC(=O)c1c(C)[nH]c(CCC(=O)NCc2ccc(CC)cc2)c1C,inactive: 72%
19,CCC(Sc1nc2cc(OC)c(OC)cc2c2nc(-c3ccccc3)nn12)C(=O)Nc1cccc(C)c1 (stereo not drawn),inactive: 76%
20,COc1ccc(NC(=O)C2=C(C)Nc3nc(SCc4ccccc4C)nn3C2c2cc(OC)c(O)c(OC)c2)cc1 (stereo not drawn),inactive: 89%
21,Cc1ccc(-n2ncc(C(=O)NCc3cccs3)c2C2CCN(C(=O)OC(C)(C)C)CC2)c(C)c1,inactive: 95%
22,Cc1ccc(CSc2nnc(CCNC(=O)OC(C)(C)C)o2)cc1,inactive: 138%

row,SMILES,survival
1,O=C(NCc1ccccc1Cl)c1ccc(CSCc2ccccc2Cl)o1,inactive: 66%
2,COc1ccc(OC)c(NC(=O)CSc2nnc3ccc4ccccc4n23)c1,inactive: 74%
3,COc1ccc(NC(=O)CCn2c(=O)c3cccn3c3cccnc32)c(OC)c1,inactive: 110%
4,CCC(C(=O)NCc1ccccc1)n1nc(C)c2sc3ccccc3c2c1=O (stereo not drawn),inactive: 88%
5,CCc1ccc(NC(=O)CCn2nc(-c3ccccc3OC)c3c(C)cc(C)nc32)cc1,inactive: 88%
6,COc1ccc(-c2noc(CC(=O)Nc3ccc(F)cc3F)n2)cc1,inactive: 85%
7,Cc1ccc(-c2nnc(Nc3cccc(O)c3)c3ccccc23)cc1S(=O)(=O)N1CCOCC1,inactive: 92%
8,COc1ccc(NC(=O)CSc2nnc(CNc3ccc(C)cc3C)o2)c(OC)c1,inactive: 112%
9,COc1ccccc1OC(C)C(=O)Nc1ccc(-c2nc3ccccc3s2)cc1 (stereo not drawn),inactive: 98%
10,CC1(C)CC(CC(=O)O)(Cc2ccccc2)CCO1 (stereo not drawn),inactive: 90%
11,CN(Cc1ccccc1)C(=O)Nc1ccc2c(c1)N(C)C(=O)c1ccccc1S2,inactive: 104%
12,c1ccc(Nc2c(-c3c[nH]c4ccccc34)nc3ccccn23)cc1,inactive: 66%
13,COc1ccc(-c2cc(C(=O)OC(C)C(=O)c3ccccc3)c3cccc(Cl)c3n2)cc1 (stereo not drawn),inactive: 71%
14,Cc1ccc2nc(N3CCC(C(=O)N4CCN(c5cccc(Cl)c5)CC4)CC3)[nH]c2c1,inactive: 74%
15,CCOCCCNC(=O)C(c1ccc(C)cc1)N(Cc1ccc2c(c1)OCO2)C(=O)c1ccc(NC(C)=O)cc1 (stereo not drawn),inactive: 71%
16,CCC(C)NC(=O)c1ccccc1NC(=O)CN1C(=O)c2cccc3cccc1c23 (stereo not drawn),inactive: 67%
17,Cc1ccc(C2c3[nH]c4ccccc4c3CCN2C(=O)c2cccc(C)c2)cc1 (stereo not drawn),inactive: 135%
18,CC(C)Nc1ccc(-c2nc(-c3ccco3)no2)cc1[N+](=O)[O-],inactive: 117%
19,Cc1cccc(OCC(=O)Nc2ccc(Cl)c(-c3nc4ncccc4o3)c2)c1C,inactive: 38%
20,COc1cc2cc(CNc3ccc(C)cc3)c(=O)n(CC(=O)Nc3ccc(F)cc3F)c2cc1OC,inactive: 77%
21,COc1cc(C(=O)NCC(c2cccs2)S(=O)(=O)c2ccc(F)cc2)cc(OC)c1OC (stereo not drawn),inactive: 126%
22,CC(C)NC(=O)CN1C(=O)COc2ccc(S(=O)(=O)N3CCCCCC3)cc21,inactive: 75%

row,SMILES,survival
1,CCOC(=O)c1c(C)[nH]c(CCC(=O)Nc2ccc(C)c(F)c2)c1C,inactive: 70%
2,Cc1cccc(NC(=O)c2nnn(CC(=O)Nc3ccc(C(C)C)cc3)c2N)c1C,inactive: 93%
3,Cc1ccccc1Oc1ccc(-c2nc(N)nc(N)n2)cc1,inactive: 100%
4,O=C(CSC1=NCCS1)NCc1ccco1,inactive: 110%
5,CCC(=O)N1CCc2cc(Br)cc(S(=O)(=O)CCC(=O)NCc3ccc(Cl)cc3)c21,inactive: 96%
6,Cc1nc(Oc2ccc(F)cc2Cl)c2oc3ccccc3c2n1,inactive: 79%
7,CCOc1ccccc1NC(=O)CN(C)S(=O)(=O)c1ccc2nc(C)sc2c1,inactive: 83%
8,CCOC(=O)Cc1nn(Cc2ccccc2)c(=O)c2ccccc12,inactive: 118%
9,CC(C)Oc1ccc(C(=O)N(Cc2ccco2)c2ccccn2)cc1,inactive: 92%
10,CSC1=NC2(CCN(C(=O)NC3CCCCC3)CC2)N=C1c1ccc(C)c(C)c1,inactive: 71%
11,Cc1ccc(CNC(=O)CC(C)S(=O)(=O)c2cc3c(cc2C)NC(=O)CO3)cc1 (stereo not drawn),inactive: 71%
12,Cc1ccc(NC(=O)CCc2nnc3n(C)c(=O)c4sccc4n23)cc1C,inactive: 72%
13,COc1ccc(Br)cc1CNC(=O)c1cc2n(n1)CCCN(Cc1ccc(C)cc1)C2=O,inactive: 74%
14,O=C(Nc1sc2c(c1C(=O)NCc1ccco1)CCCC2)c1cc(=O)c2ccccc2o1,inactive: 88%
15,Cc1ccc(C)c(NC(=O)CN2C(=O)C(C)(C)c3ccccc32)c1,inactive: 76%
16,CC(C)N(C(=O)CSc1nnc(CSc2ncccn2)n1C)C(C)C,inactive: 102%
17,CC(NC1CCCC1)c1ccccc1 (stereo not drawn),inactive: 107%
18,CCc1ccc(CN(Cc2ccco2)c2cnc(S(C)(=O)=O)nc2C(=O)Nc2ccccc2Cl)cc1,inactive: 120%
19,Fc1ccc(Nc2c3c(nc4ccccc24)CCC3)cc1,inactive: 70%
20,CCc1nnc(SC(CC)C(=O)Nc2cccc(OC)c2)c2cc3oc(C)cc3n12 (stereo not drawn),inactive: 82%
21,Cc1ccc(Sc2c(C)nn(C(C)(C)C)c2OC(=O)C(C)(C)C)cc1,active: -8%
22,Cc1cccc(OCC(=O)N2CCc3ccccc32)c1,inactive: 106%
